Source: ChEMBL document CHEMBL4888484, “Replenishing the malaria drug discovery pipeline: Screening and hit evaluation of the MMV Hit Generation Library 1 (HGL1) against asexual blood stage Plasmodium falciparum ,using a nano luciferase reporter read-out” (2022)
Several values for one entry are separate records, joined by “and”; a condition that tells them apart may be missing. Equal entries are not always repeated. About 540 (0.36%) of roughly 150,000 compounds showed an effect of 50% or more. Some of the results follow.

System: Plasmodium falciparum
Test: Primary screen in NF54 nanoGlo assay, in single point, at 2uM, 72h; a lower Z score goes with more inhibition
Assay type: functional, Erythrocyte
Conditions: timepoint 72 hour

Row | SMILES | % Inhibition [%] | Z score | % Inhibition (2 µM)
1 | C[C@@H](C(=O)NCCCn1cc(Cl)cn1)n1cnnn1 | -10 | 1.83 | –
2 | Cc1cc(F)ccc1-c1ccc(C(=O)N2CCO[C@@H](CC(=O)O)C2)cc1F | 12 | -1.46 | –
3 | Cc1ccc(C(=O)NC2CCN(c3ccc(-c4cccc(F)c4)nn3)CC2)cn1 | 15 | -1.74 | –
4 | O=S(=O)(C1CCOCC1)N1CCC2(CCCC2)CC1 | -2 | 0.31 | –
5 | CC(C)CCN1C[C@]23C=C[C@H](O2)C(C(=O)N2CCNC(=O)CC2)C3C1=O (some centres undefined) | -7 | 1.34 | –
6 | CCOc1cccc(CNC(=O)c2cnc(N3CCC4(CC3)OCCO4)nc2N)c1 | -5 | 0.62 | –
7 | O=C(Nc1nccs1)c1cnsn1 | -5 | 0.58 | –
8 | O=C(NC1CCCCC1)c1coc(CN2CCN(Cc3cccc(F)c3F)CC2)n1 | -13 | 2.18 | –
9 | COc1ccc(N2CCN(C(=O)CCn3nc(C)c(S(=O)(=O)N4CCCC4)c3C)CC2)cc1 | -7 | 1.31 | –
10 | CCCOC(=O)c1cnc2nc(C)ccc2c1Nc1ccc(C)cc1O | 3 | -0.39 | –
11 | Cc1cccc(C)c1NC(=O)NCCc1nc2cccnc2n1C1CCCC1 | -10 | 1.35 | –
12 | O=C(NC1CC=CC1)C1(C(=O)NC2CC=CC2)CCC1 | -1 | 0.11 | –
13 | Cc1c(Cl)cccc1NC(=O)C1CCN(c2cc(C3CC3)ncn2)CC1 | 0 | -0.08 | –
14 | CCN(CC)[C@H](CNC(=O)c1ccccc1Br)CC(C)C | 4 | -0.6 | –
15 | O=S(=O)(N1CCOCC1)N1CC(c2ccccc2)C(c2ncon2)C1 (centres undefined) | -11 | 2.16 | –
16 | Cc1cc(C)c2c(c1)[C@H]1OCCC[C@H]1C(c1ccc(Cl)cc1)N2 (some centres undefined) | -15 | 2.46 | –
17 | CCC(C)(C)c1nnc(N2CCC(OC)CC2)o1 | -3 | 0.29 | –
18 | Cn1nccc1C(=O)NC[C@H]1CCc2ccccc2O1 | -13 | 2.48 | –
19 | Cc1cc(NC(=O)C2CCC2)n(-c2ccc(C(F)(F)F)cn2)n1 | -6 | 0.78 | –
20 | COc1ncccc1CN1c2ccccc2N(C2CCC2)S1(=O)=O | -15 | 1.54 | –
21 | Cc1ccc(F)c(-n2cc(O)c(C(=O)NCc3nnc(C)n3C3CC3)n2)c1 | -4 | 0.43 | –
22 | O=C1CN(Cc2ccns2)[C@H](c2ccccc2)CN1 | 9 | -0.78 | –

Row | SMILES | % Inhibition [%] | Z score | % Inhibition (2 µM)
23 | COc1ccccc1CCNCc1c(C(=O)O)c(C)n(-c2ccc(C)cc2)c1C | -3 | 0.5 | –
24 | O=C(CN1CCC[C@H]1C(=O)O)Nc1ccccc1C(F)(F)F | -2 | 0.29 | –
25 | COc1ccc(NC(=O)CCN2CCC[C@H]2c2ncc[nH]2)cc1 | -5 | 0.84 | –
26 | CCN1C[C@H](CN(C)C(=O)c2ccc(F)c(F)c2)Oc2ccccc21 | -7 | 0.67 | –
27 | Cc1ccc(S(=O)(=O)N2CCN(C(=O)CCc3c(C)nn(C)c3C)CC2)cc1 | -3 | 0.39 | –
28 | CC(=O)N(CCC(=O)N(CCC#N)CC(C)(C)C)Cc1ccccc1 | -5 | 0.72 | –
29 | Cc1cc([C@@H](C#N)C(=O)Nc2ccc(Cl)c(Cl)c2)nc(C)n1 | -9 | 1.07 | –
30 | O=C1NC(=O)C2(CCN(C(=O)c3cc(C4CC4)[nH]n3)CC2)N1 | -2 | 0.36 | –
31 | Cc1ccc(C(=O)c2ccccc2C(=O)NCc2nncn2C)cc1C | -3 | 0.52 | –
32 | CCOC(=O)CN[C@H]1CCCOCC1 | -7 | 0.92 | –
33 | CN1CCN(c2nc3c(c(Oc4cccc(F)c4)n2)CN(C(=O)c2ccc(F)cc2F)CC3)CC1 | -5 | 0.64 | –
34 | CN(C)C(=O)c1ccc(N(C)C2Cc3ccccc3C2)nc1 | -4 | 0.37 | –
35 | CO[C@H]1COC[C@@H]1NC(=O)c1ccncc1Cl | -3 | 0.31 | –
36 | CCc1cc(C(=O)N2C[C@@H]3CC[C@H]2CN(Cc2ccc(OC)cc2)C3)ccn1 | -10 | 1.05 | –
37 | CCCCn1nc(Cc2ccc(OC)cc2)nc1C1(O)CCN(C)CC1 | -2 | 0.41 | –
38 | COc1ccc(-c2nc(CCS(=O)(=O)c3ccc(Cl)cc3)no2)cc1OC | -8 | 0.8 | –
39 | Cc1ccc(S(=O)(=O)NC2CC2)cc1C(=O)Nc1cccc(C#Cc2ccccn2)c1 | -5 | 0.56 | –
40 | O=S(=O)(Nc1cnc2c(Br)cccn12)c1ccc(C(F)F)cc1 | -8 | 0.92 | –
41 | Cn1nc(-c2cccs2)cc1C(=O)N[C@H]1CCN(c2nccn3cnnc23)C1 | -11 | 1.47 | –
42 | c1ccc2c(c1)CN(c1nc(C3CC3)ns1)C[C@@H]2n1cccn1 | -23 | 2.39 | –
43 | O=C1O[C@H](C(=O)Nc2ccc3c(c2)OC2(CCCCC2)O3)Cc2ccccc21 | -4 | 0.47 | –
44 | CCN(CC)C(=O)C[C@@H]1CCNC[C@@H]1Cc1cc(C(C)(C)C)on1 | -14 | 2.27 | –

Row | SMILES | % Inhibition [%] | Z score | % Inhibition (2 µM)
45 | CCc1nc(C)c(CN2CCC[C@H](S(=O)(=O)N(C)C)C2)o1 | -19 | 2.05 | –
46 | CC[C@](O)(CNS(=O)(=O)CC)c1ccc(Br)cc1 | 3 | -0.25 | –
47 | O=C(c1ccc(Cl)cc1)N1CCN(c2ccc(-c3cccs3)nn2)CC1 | 7 | -0.89 | –
48 | CCc1cc(C(=O)N2C[C@H](NC(=O)N(C)C)[C@@H](C(C)C)C2)cs1 | -8 | 1.09 | –
49 | c1coc(CNCc2cccc3ccccc23)c1 | – | – | -1% and -5%
50 | CCc1noc(C)c1C(=O)N1CC[C@@]2(CCCN(Cc3cccc(C)c3)C2)C1 | 6 | -0.83 | –
51 | COc1cccc(C(=O)NCC(=O)N2CC[C@H](O)C23CCCC3)c1 | -7 | 0.98 | –
52 | N#Cc1cc(NCc2ccsc2)ccc1Cl | -3 | 0.63 | –
53 | Cc1nc(CCNc2cc([C@H]3C[C@@H](O)C3)nc(N)n2)sc1C | -3 | 0.29 | –
54 | CCN(CC)CCCNC(=O)c1ccc(-c2nc(CN3CCc4ccccc43)c(C)o2)cc1 | 9 | -1.21 | –
55 | CN(Cc1cc[nH]n1)C(=O)c1ccn(CC(F)(F)F)n1 | -3 | 0.5 | –
56 | Cn1cnc2cc(C(=O)N(c3ccc(F)cc3)C3CCCC3)cnc21 | -4 | 0.56 | –
57 | Cc1n[nH]nc1C(=O)N1CC[C@H](Oc2ccccc2)C1 | 1 | -0.19 | –
58 | COCCC(C)C(=O)NC1(CNC(=O)CC2CCCC(=O)N2)CCCCC1 (centres undefined) | 17 | -2.1 | –
59 | Cc1nnc(CN2C[C@H](C)Oc3cc(C)c(Br)cc32)o1 | -5 | 0.49 | –
60 | c1ccc2nc(N3CCCC4(CCNCC4)CC3)cnc2c1 | 8 | -1.23 | –
61 | CCCn1nc(C)cc1CN(C)C(=O)c1cn2ccccc2n1 | 4 | -0.59 | –
62 | CCc1cccc(C)c1NC(=O)OCC(F)(F)F | -9 | 0.78 | –
63 | Cn1cc(Br)cc1C(=O)NC[C@H](O)c1ccco1 | -3 | 0.32 | –
64 | COc1ccccc1-c1ccc(C(=O)NC2CCN(Cc3ccccc3)CC2)c(N(C)C[C@H]2COCCO2)n1 | 13 | -1.73 | –
65 | Nn1ccc2c(nnc3ccnn32)c1=O | -11 | 1.43 | –
66 | CNC[C@H]1CCCN1S(=O)(=O)c1cc(C)sc1C | -19 | 2.25 | –

Row | SMILES | % Inhibition [%] | Z score | % Inhibition (2 µM)
67 | Cc1cc(C)n(C)c(=O)c1C(=O)NCc1cc(CC(C)C)on1 | -8 | 1.3 | –
68 | Cc1ccc(F)c(NC(=O)N2CC[C@H](OCCN3CCCCC3)C2)c1 | -7 | 0.94 | –
69 | O=C1CN(C(=O)NCC2(C3CC3)CCC2)C2CCCCC2N1 (centres undefined) | -1 | 0.18 | –
70 | Cn1nc(CC(N)=O)nc1-c1ccc(N2CCOCC2)cc1 | -17 | 1.45 | –
71 | CCOc1nc(NC[C@H]2CC[C@@H](CO)O2)ncc1Br | -3 | 0.61 | –
72 | CN(C(=O)C(=O)N1CCC2(CCOCC2)CC1)c1ccccc1 | -1 | 0.2 | –
73 | CNC(=O)c1cccnc1NC[C@@H]1COc2ccccc2C1 | -13 | 1.13 | –
74 | O=C1CCN(S(=O)(=O)c2cccc(F)c2)CCCCC[C@@H](C(=O)N2CCc3ccccc3C2)N1 | -13 | 2.56 | –
75 | CC(C)Oc1ccc(C(=O)N2CC(C)(C(N)=O)C2)c(Cl)c1 | -1 | 0.13 | –
76 | COc1cc2c(cc1CN(C)Cc1noc(C)n1)OCCCO2 | -15 | 2.19 | –
77 | Cc1ccc(-c2ncc(C(=O)N(C)Cc3ccccc3)c(N3CCC(C)CC3)n2)cc1 | -2 | 0.33 | –
78 | CC1(C)NC(=O)N(CNc2ccc(Br)cc2)C1=O | 36 | -4.63 | –
79 | O=C1CCc2cc(NC(=O)c3ccc(-c4ccccc4F)s3)ccc2N1 | -7 | 1.25 | –
80 | O=C(Cc1noc2ccccc12)N1CCn2nccc2C1 | -20 | 2.29 | –
81 | C[C@H]1CCCN(C(N)=NCCN(C)S(=O)(=O)c2cccs2)C1 | -4 | 0.48 | –
82 | Cn1c(CN2CCCC2)nnc1C1CCN(c2cnc3ccccc3n2)CC1 | -3 | 0.6 | –
83 | CCOc1cc(C(=O)N2CC3CCCC3C2)ccn1 (centres undefined) | -6 | 0.73 | –
84 | COCCCCN(C)[C@@H](c1ccc(F)cc1)c1ncccn1 | -6 | 1.08 | –
85 | Cc1nn(CC(=O)N2CCNC(=O)C23CCCC3)c(C)c1Cl | 3 | -0.39 | –
